{"source": "patent US20090298813A1", "about": "“USE OF NEUROPROTECTIVE COMPOUNDS IN OBTAINING MEDICAMENTS INTENDED FOR THE TREATMENT OF NEURODEGENERATING DISEASES” (LES LABORATOIRES SERVIER, priority 2007, published 2009)", "key": {"[1]": {"system": "Mouse embryonic stem (ES) cells", "test": "Effect on cell differentiation of stem cells (markers by Q-RT-PCR)", "format": "cell-based", "conditions": "1 μM, after 8 days of exposure", "source_text": "Mouse embryonic stem (ES) cells are isolated from the internal cell mass of the blastocyst. Depending on the culture conditions, they can multiply indefinitely or can differentiate to give rise to various types of cell. The ES cells differentiate into neural precursors which, in turn, develop into a heterogeneous population of cells composed of astrocytes, oligodendrocytes and different types of neurons (GABAergic, glutamatergic, dopaminergic, cholinergic, glycinergic etc.) (Okabe S., Forsberg-Nilsson K., Spiro A. C. et al., Mechanisms of Development, (1996), 59, 89-102; Brüstle O., Spiro A. C., Karram K. et al., Proc Natl Acad Sci USA, (1997), 94, 14809-14814; Guan K., Chang, Rolletschek A. et al., Cell Tissu Res, (2001), 305, 171-176). Adding certain differentiation inducers such as retinoic acid (RA) to the culture medium facilitates orientation of the ES cells towards the neuronal route (Strübing C., Ahnert-Hilger G., Shan J. et al., Mechanisms of Development, (1995), 53, 275-287). The obtaining of a homogeneous population of neurons constitutes a key step in the objective of treating neurodegenerative diseases whether on the basis of transplanting ES or for differentiation of the ES of the patient.\nThe experiment is carried out in the following manner: 12 hours after dividing the confluent ES cells for subculturing, they are treated with compounds of the invention at concentrations of 0.1; 1 and 10 μM and with RA (1 μM). The treatment is repeated every 2 days and the cell extracts are made 3 hours after each treatment, on the 1st day (3 hours), the 4th day (D4) and 8th day (D8) for quantification of the markers by Q-RT-PCR -(quantitative reverse transcription polymerase chain reaction).\nThese markers are: nestin, neural precursor marker; synaptophysin, neuronal differentiation and synaptic plasticity marker; TH, marker of differentiation into neurons of dopaminergic or noradrenergic type; glutamic acid decarboxylase (GAD), marker of differentiation of ES into GABAergic neurons; GFAP, specific astrocyte marker."}, "[2]": {"system": "newborn mice", "test": "Protection from neurodegeneration caused by ibotenate in newborn mice", "format": "in vivo, mouse", "experimental": "Ibotenate, an agonist of N-methyl-D-aspartate (NMDA) receptors, when administered by the intracerebral route to the newborn mouse, brings about lesions of excitotoxic origin in the neocortex and the underlying white matter.\nThe ibotenate injection is performed in newborn mice aged 5 days (P5). The compounds of the invention are administered by the i.p. route at a dose of 20 mg/kg [either simultaneously] (P5), [or 8, 24 or 48 hours after induction of the lesions]. […] Cell markers were applied to the brain slices of animals sacrificed at various times after administration of ibotenate and the compound of the invention: (1) cleaved caspase-3, an apoptosis marker; (2) isolectin, a microglial activation marker; (3) glial fibrillary acidic protein (GFAP), a marker of astrogliosis."}, "[3]": {"conditions": "20 mg/kg i.p., sacrifice at 24 h"}, "[4]": {"conditions": "20 mg/kg i.p., simultaneous injection at 0 h, sacrifice at 120 h"}, "[5]": {"conditions": "injected 24 hours after ibotenate, when the lesions have already developed"}}}
{"smiles": "CN1CCC=C(C(=O)Nn2ccc3ccccc32)C1", "note": "[Example 2, N-(1H-indol-1-yl)-1-methyl-1,2,5,6-tetrahydropyridine-3-carboxamide]", "values": [{"measurement": "increase in GFAP (specific astrocyte marker)", "setting": "[1]", "result": 67, "unit": "%"}, {"measurement": "increase in TH (marker of differentiation into dopaminergic or noradrenergic neurons)", "setting": "[1]", "result": "253±62", "unit": "%"}, {"measurement": "increase in synaptophysin (neuronal differentiation and synaptic plasticity marker)", "setting": "[1]; p<0.05", "result": "229±37", "unit": "%"}, {"measurement": "Reduction in the intensity of markers relative to the controls, Cleaved caspase-3 (apoptosis)", "setting": "[2]; [3]", "result": 51, "unit": "%"}, {"measurement": "Reduction in the intensity of markers relative to the controls, Isolectin (microglial activation)", "setting": "[2]; [3]", "result": 50, "unit": "%"}, {"measurement": "Reduction in the intensity of markers relative to the controls, GFAP (astrogliosis)", "setting": "[2]; 20 mg/kg i.p., sacrifice at 120 h", "result": 46, "unit": "%"}, {"measurement": "Reduction in the size of lesions relative to the controls, cortex", "setting": "[2]; [4]", "result": 63, "unit": "%"}, {"measurement": "Reduction in the size of lesions relative to the controls, white matter", "setting": "[2]; [4]", "result": 38, "unit": "%"}, {"measurement": "reparatory effect: reduction in the size of the lesions, cortex", "setting": "[2]; [5]", "result": 27, "unit": "%"}, {"measurement": "reparatory effect: reduction in the size of the lesions, white matter", "setting": "[2]; [5]", "result": 37, "unit": "%"}]}
